In a collection of fitness landscapes (doi:10.1126/science.1257360):
The other results are listed elsewhere or left out.

B1: PhoQ; a variant is named by its letters at X, in order, P23837 (parent)
chain: MKKLLRLFFPLSLRVRFLLATAAVVLVLSLAYGMVALIGYSVSFDKTTFRLLRGESNLFYTLAKWENNKLHVELPENIDKQSPTMTLIYDENGQLLWAQRDVPWLMKMIQPDWLKSNGFHEIEADVNDTSLLLSGDHSIQQQLQEVREDDDDAEMTHSVAVNVYPATSRMPKLTIVVVDTIPVELKSSYMVWSWFIYVLSANLLLVIPLLWVAAWWSLRPIEALAKEVRELEEHNRELLNPATTRELTSLVRNLNRLLKSERERYDKYRTTLTDLTHSLKTPLXXLQXXLRSLRSEKMSVSDAEPVMLEQISRISQQIGYYLHRASMRGGTLLSRELHPVAPLLDNLTSALNKVYQRKGVNISLDISPEISFVGEQNDFVEVMGNVLDNACKYCLEFVEISARQTDEHLYIVVEDDGPGIPLSKREVIFDRGQRVDTLRPGQGVGLAVAREITEQYEGKIVAGESMLGGARMEVIFGRQHSAPKDE

Variants of: B1
Test: enrichment ratio after two sorts for PhoP signalling (ratio (wild type AVST 3.29)); higher = more functional
Settings: with PhoP (E. coli)

| Variant | enrichment ratio |
| --- | --- |
| SLRK | ≤ 0.25 |
| SKWR | ≤ 0.25 |
| NKSE | ≤ 0.25 |
| TYEI | ≤ 0.25 |
| DLDY | ≤ 0.25 |
| MKIV | ≤ 0.25 |
| FYHV | ≤ 0.25 |
| ANTF | 4.96 |
| YYAF | ≤ 0.25 |
| ACQQ | ≤ 0.25 |
| HWHF | ≤ 0.25 |
| SEYN | ≤ 0.25 |
| NCGD | ≤ 0.25 |
| HFDL | ≤ 0.25 |
| ANGM | 21.9 |
| WFFQ | ≤ 0.25 |
| HMLE | ≤ 0.25 |
| DYTH | ≤ 0.25 |
| NHQD | ≤ 0.25 |
| THNH | 16.2 |
| YWAL | ≤ 0.25 |
| MFWC | ≤ 0.25 |
| LVLT | ≤ 0.25 |
| KYSE | ≤ 0.25 |
| TTRT | ≤ 0.25 |

| Variant | enrichment ratio |
| --- | --- |
| AHTW | ≤ 0.25 |
| ITQT | ≤ 0.25 |
| MSHK | ≤ 0.25 |
| HHWV | ≤ 0.25 |
| HDRM | ≤ 0.25 |
| HSHG | 0.457 |
| MKVW | ≤ 0.25 |
| DMHE | ≤ 0.25 |
| WIKF | ≤ 0.25 |
| MKYS | ≤ 0.25 |
| PFDI | ≤ 0.25 |
| AGSE | 9.87 |
| NEQF | ≤ 0.25 |
| TKRM | ≤ 0.25 |
| NWPK | ≤ 0.25 |
| GCCC | 0.317 |
| HGSD | ≤ 0.25 |
| NGLW | ≤ 0.25 |
| MKPG | ≤ 0.25 |
| SWSP | ≤ 0.25 |
| SSMN | 8.17 |
| MAFQ | 24.4 |
| LSEV | ≤ 0.25 |
| SESF | 8.74 |
| MYMK | ≤ 0.25 |

| Variant | enrichment ratio |
| --- | --- |
| ATIG | 4.76 |
| LWLM | ≤ 0.25 |
| IKND | ≤ 0.25 |
| SHRH | ≤ 0.25 |
| TSWA | 15.4 |
| PGMV | ≤ 0.25 |
| TEVE | 11.6 |
| DPPG | ≤ 0.25 |
| FHCI | ≤ 0.25 |
| RDLT | ≤ 0.25 |
| SGYP | ≤ 0.25 |
| YNCN | ≤ 0.25 |
| SMPW | ≤ 0.25 |
| TTVD | ≤ 0.25 |
| ITIL | ≤ 0.25 |
| ADGS | ≤ 0.25 |
| TFGP | ≤ 0.25 |
| GEPM | ≤ 0.25 |
| SMTT | 3.61 |
| PFTK | ≤ 0.25 |
| QNWG | ≤ 0.25 |
| QTPQ | ≤ 0.25 |
| YCAF | ≤ 0.25 |
| AMPP | ≤ 0.25 |
| KHQG | ≤ 0.25 |

| Variant | enrichment ratio |
| --- | --- |
| SCGN | 7.28 |
| KDSE | ≤ 0.25 |
| ELYF | ≤ 0.25 |
| QYHR | ≤ 0.25 |
| RWWS | ≤ 0.25 |
| WHMH | ≤ 0.25 |
| LGRT | ≤ 0.25 |
| MQKD | ≤ 0.25 |
| NAKV | ≤ 0.25 |
| LSKC | ≤ 0.25 |
| SYFG | ≤ 0.25 |
| EPFP | ≤ 0.25 |
| RKML | ≤ 0.25 |
| LDKK | ≤ 0.25 |
| WSGM | ≤ 0.25 |
| LMRY | ≤ 0.25 |
| RLSC | ≤ 0.25 |
| RCYW | ≤ 0.25 |
| MTGF | 2.95 |
| KATL | ≤ 0.25 |
| TYYV | ≤ 0.25 |
| YMAC | ≤ 0.25 |
| YWNE | ≤ 0.25 |
| MRVQ | ≤ 0.25 |
| ACHW | ≤ 0.25 |

| Variant | enrichment ratio |
| --- | --- |
| DQIP | ≤ 0.25 |
| FGCK | ≤ 0.25 |
| LAEE | ≤ 0.25 |
| SWWN | ≤ 0.25 |
| LRFQ | ≤ 0.25 |
| IQWA | ≤ 0.25 |
| PRGE | ≤ 0.25 |
| THVT | ≤ 0.25 |
| GFLR | ≤ 0.25 |
| YPKM | ≤ 0.25 |
| APTY | ≤ 0.25 |
| PCPV | ≤ 0.25 |
| EIHF | ≤ 0.25 |
| DLKI | ≤ 0.25 |
| AVNG | ≤ 0.25 |
| VMFK | ≤ 0.25 |
| IAAI | ≤ 0.25 |
| WFSS | ≤ 0.25 |
| WMGH | ≤ 0.25 |
| SKSD | ≤ 0.25 |
| HVFG | ≤ 0.25 |
| FPWT | ≤ 0.25 |
| ANMQ | 7.41 |
| FCDH | ≤ 0.25 |
| MYHN | ≤ 0.25 |

| Variant | enrichment ratio |
| --- | --- |
| TNRQ | ≤ 0.25 |
| GNLD | ≤ 0.25 |
| MDEK | ≤ 0.25 |
| IIMI | ≤ 0.25 |
| PLSA | ≤ 0.25 |
| IPNQ | ≤ 0.25 |
| DPCH | ≤ 0.25 |
| GPVR | ≤ 0.25 |
| LFKA | ≤ 0.25 |
| KYKS | ≤ 0.25 |
| DGRS | ≤ 0.25 |
| TMEE | ≤ 0.25 |
| KEGM | ≤ 0.25 |
| FGCT | ≤ 0.25 |
| FVMR | ≤ 0.25 |
| IDAL | ≤ 0.25 |
| HMME | ≤ 0.25 |
| AMQP | ≤ 0.25 |
| LIDE | ≤ 0.25 |
| GSSC | 3.86 |
| VENI | ≤ 0.25 |
| SCPF | ≤ 0.25 |
| FTYK | ≤ 0.25 |
| SVLD | ≤ 0.25 |
| KYLV | ≤ 0.25 |

| Variant | enrichment ratio |
| --- | --- |
| VIIL | ≤ 0.25 |
| TQQL | 11.6 |
| NPLL | ≤ 0.25 |
| AEYP | ≤ 0.25 |
| PVML | ≤ 0.25 |
| STMR | 0.517 |
| EKPS | ≤ 0.25 |
| LCRV | ≤ 0.25 |
| LEGT | ≤ 0.25 |
| FSQP | ≤ 0.25 |
| PWVC | ≤ 0.25 |
| KHVG | ≤ 0.25 |
| PNKC | ≤ 0.25 |
| VCWW | ≤ 0.25 |
| SPMY | ≤ 0.25 |
| QCWG | 1.24 |
| ELDP | ≤ 0.25 |
| KCRF | ≤ 0.25 |
| RDYI | ≤ 0.25 |
| YVAL | 0.298 |
| NCVF | ≤ 0.25 |
| VEGL | ≤ 0.25 |
| QILN | ≤ 0.25 |
| FYWD | ≤ 0.25 |
| MMAH | 7.42 |

| Variant | enrichment ratio |
| --- | --- |
| MAAP | ≤ 0.25 |
| GDKS | ≤ 0.25 |
| YSCK | ≤ 0.25 |
| VDFD | ≤ 0.25 |
| AMIW | ≤ 0.25 |
| KHFA | ≤ 0.25 |
| VEEH | ≤ 0.25 |
| HAGA | ≤ 0.25 |
| PTHC | ≤ 0.25 |
| YTEN | ≤ 0.25 |
| AAGH | ≤ 0.25 |
| WYLV | ≤ 0.25 |
| WKRF | ≤ 0.25 |
| PKWN | ≤ 0.25 |
| QDAQ | ≤ 0.25 |
| EHMG | ≤ 0.25 |
| GQGV | ≤ 0.25 |
| VHGE | ≤ 0.25 |
| TCGY | 20.3 |
| YPNK | ≤ 0.25 |
